Measured values: PubChem BioAssay (NCI)
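Assay format: 96-well plates, 48-hour exposure. GI50 is the concentration that inhibits growth by half. Definition used: TGI = concentration required for complete inhibition of growth.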

System: NCI-H322M lung
Assay: DTP human tumour cell line panel, 48 h

| SMILES | GI50 | TGI |
| --- | --- | --- |
| COc1ccc(-c2nc3cc(C)ccc3n2CC(=O)N=Nc2c(O)[nH]c3ccccc23)cc1 | 3.79 µM | 16.7 µM |
| COc1ccc(-c2nc3cc(C)ccc3n2CC(=O)N=Nc2c(O)[nH]c3ccc(Cl)cc23)cc1 | 2.59 µM | 9.18 µM |
| COc1ccc(/C=C/c2nc3ccccc3c(=O)n2CC(=O)Nc2ccccc2)cc1 | 3.78 µM | > 100 µM |
| CNc1nc2ccccc2n2c(-c3ccc(O)c(O)c3)cnc12 | < 0.0217 µM | 56.4 µM |
| C=CCn1c(SCC(=O)Nc2ccc(C(=O)/C=C/c3ccccc3)cc2)nnc1-c1c[nH]c2ccccc12 | 48.6 µM | > 100 µM |
| O=C1Nc2ccc(F)cc2/C1=C/c1cccc(OCc2ccccn2)c1 | 16 µM | 34.4 µM |
